Reference: PubChem BioAssay AID624296 (National Center for Advancing Translational Sciences (NCATS), 2012)
In all, about 350,000 compounds went through this assay and about 9,900 (2.8%) were called active. The shares of active, inactive and inconclusive entries below differ from those in the screen. Calls follow the shape of the dose curve; as a rule, active = well fitted activation curve with a large enough effect; inconclusive = small, poorly fitted or top-dose-only effect; inactive = no such curve, though single readings can be large or run the other way. No potency is given beside an inconclusive call; the fits are too rough.

Assay: A quantitative high throughput screen for small molecules that induce DNA re-replication in MCF 10a normal breast cells. Also: nearly all actives have a fitted effect of over 50% in size.
Conditions: MCF 10A DNA re-replication, Hoechst nuclear intensity, 48 h; series mostly up to 46.1 µM
From the text: H Molecular Libraries Probe Production Network [MLPCN]
NIH Chemical Genomics Center [NCGC]
Assay Provider: Melvin DePamphilis, NICHD, NIH
Eukaryotic cells normally restrict genome duplication to once per cell division. When this process is aberrant, DNA re-replication occurs when cells reinitiate DNA replication before the first round of replication is complete. DNA re-replication induces the DNA damage response, arrests cell proliferation, and triggers apoptosis. The cell cycle components cyclin A, Cdt-1, Cdc6 and geminin are critical regulators of this process and their misregulation results in DNA re-replication in normal and cancer cells. To identify compounds that induce re-replication in normal cells, an image-based assay was used to measure DNA content of nuclei, as detected by the fluorescent DNA binding dye, Hoechst. Cell nuclei were imaged by a fluorescence scanning plate imager and compounds that induce DNA re-replication were identified by the increase of nuclei with elevated fluorescence intensity
For screening, 250 cells in 5 uL/well were dispensed into black clear 1536-well plates (Aurora) using a solenoid-based dispenser. Following transfer of 23 nL compound or DMSO vehicle by a pin tool, the plates were incubated 48 hr at 37 C and 5% CO2. After addition of 1 uL/well Hoescht stain, the plates were incubated 40 min at 37 C, 5% CO2 and total intensity of fluorescent objects (nuclei) were enumerated by an Acumen Explorer Ex3 (TTP LabTech) fluorescence scanning plate imager (405 nm excitation, 500-530 nm emission).
Keywords: NIH Roadmap, MLPCN, MLI, MLSMR, qHTS, NCGC, DNA replication, cancer
Potency is read from the fitted curve at half-maximal effect; tags tell the direction and shape of the fitted curve.

SMILES | Potency
O=C(CNCc1ccccc1)Nc1ccc(Oc2ccccc2)cc1 | inconclusive [activator, partial curve]
COc1ccc(-c2cc(-c3cc(C)ccc3O)[nH]n2)cc1 | active: 18.4 µM
O=C(CSc1nc2ccccc2o1)Nc1ccccc1N1CCCCCC1 | inconclusive [activator, single point]
O=C(/C=C/c1ccccc1Cl)Nc1ccc2c(c1)C(=O)NC2=O | inconclusive [activator, single point]
CCOC(=O)c1c(C)n(C)c2ccc(O)c(CN(C)C)c12 | inconclusive [activator, partial curve, poor fit]
NS(=O)(=O)c1ccc(NC(=O)COC(=O)c2cn(-c3ccccc3)nc2-c2ccc(F)cc2)cc1 | inconclusive [activator, single point]
O=[N+]([O-])c1cc([N+](=O)[O-])c(Oc2cccnc2Br)cc1NN1CCCCC1 | inconclusive [activator, single point]
CCc1cc(C(=O)Nc2cc(S(=O)(=O)N(C)C)ccc2C)sc1C | inactive
COC(=O)c1ccc(CN2CCCC(CO)(Cc3ccccc3F)C2)cc1 (stereo not given) | inconclusive [activator, partial curve, poor fit]
O=C(N/N=C/c1ccc(O)cc1)c1ccc(NC(=O)c2ccccc2Br)cc1 | inconclusive [activator, partial curve]
O=C(Nc1nc(-c2ccccc2)cs1)c1ccccc1NS(=O)(=O)c1ccc(F)cc1 | active: 16.4 µM
CC1CCN(CCNC(=O)C2CCCN(S(=O)(=O)c3cccc4nonc34)C2)CC1 (stereo not given) | inconclusive [activator, full curve, poor fit]
NS(=O)(=O)c1ccc(NC(=O)CSc2nc3ccccc3c(=O)n2Cc2ccncc2)cc1 | inconclusive [activator, partial curve, poor fit]
Cc1cc(C)nc(NCCCc2ccccc2)n1 | inactive
O=C(NNC(=O)c1ccccc1Br)c1ccc(SCC2CCCO2)c([N+](=O)[O-])c1 (stereo not given) | inconclusive [activator, partial curve, poor fit]
O=C(Nc1nnc(SCC(=O)N2CCCCC2)s1)c1ccccc1F | inconclusive [activator, single point]
O=C(Nc1ccc(S(=O)(=O)N2CCCCC2)cc1)c1ccccc1F | inactive
C=CCc1ccc(OCCCCN2CCC(C)CC2)c(OC)c1 | inconclusive [activator, single point]
CCCCN(CCCC)S(=O)(=O)c1ccc(C(=O)Nc2nnc(COC)o2)cc1 | inconclusive [activator, single point]
CCc1nnc(NC(=O)C(NC(=O)c2ccccc2Cl)C(C)C)s1 (stereo not given) | inconclusive [activator, partial curve, poor fit]
Cc1cc2ncn(CCCCOc3ccccc3)c2cc1C | inconclusive [activator, single point]
C=CCn1c(SCN2C(=O)c3ccccc3C2=O)nc2ccc(Cl)cc2c1=O | inactive

SMILES | Potency
CC(=O)c1ccccc1NC(=O)c1ccc2c(c1)NC(=O)C(C)S2 (stereo not given) | inconclusive [activator, single point]
COc1ccc(N=C2NC(=O)/C(=C/c3ccco3)S2)cc1 | inconclusive [activator, single point]
CC(=O)Oc1ccc2cc(-c3ccccc3)c(=O)oc2c1 | inconclusive [activator, single point]
Cn1cnnc1SCC(=O)NCCc1ccc(Cl)cc1Cl | inconclusive [activator, single point]
CCN(CC)S(=O)(=O)c1ccc2oc(C(=O)NCC3COc4ccccc4O3)c(C)c2c1 (stereo not given) | inactive
COc1cc(NS(=O)(=O)c2cc(C)ccc2OC)c(OC)cc1Cl | inconclusive [activator, partial curve, poor fit]
CCn1c2c(c3cc(Br)ccc31)CCC/C2=N\O | active: 12.6 µM
Cc1ccc(CNC(=O)COC(=O)c2cc(=O)[nH]c3ccccc23)cc1 | inactive
CN1C(=O)C(CC(=O)Nc2ccccc2F)N(NC(=O)c2ccc(Br)cc2)C1=S (stereo not given) | inactive
O=C(Nc1cc(Br)ccc1O)C1CC(c2c(F)cccc2Cl)=NO1 (stereo not given) | inconclusive [activator, partial curve, poor fit]
CN(CC(=O)Nc1ccc(Cl)c(C(F)(F)F)c1)C(=O)c1ccc(S(=O)(=O)N2CCOCC2)cc1 | active: 5.8 µM
O=C1c2ccccc2C(=O)N1c1nccs1 | inactive
CCn1c(=NC(=O)c2cccc(N3C(=O)CCC3=O)c2)sc2c(OC)ccc(OC)c21 | inactive
Cc1cccc(CSc2ncnc3c2cnn3Cc2ccccc2)c1 | inconclusive [activator, single point]
CC(=O)c1c(C)oc2ccc(NS(=O)(=O)c3ccc(F)cc3C)cc12 | inactive
O=S(=O)(c1ccc(F)cc1)N1CCC2(CC1)OCCN2S(=O)(=O)c1cccs1 | inconclusive [activator, single point]
CCOc1ccc2c(c1)S/C(=C\c1cccs1)C(=O)N2 | inconclusive [activator, single point]
CN1C(C(=O)Nc2ccc(F)cc2F)=CC(c2ccco2)=NS1(=O)=O | inactive
CCc1ccc2nc(N(CCCN(C)C)C(=O)c3ccc(S(=O)(=O)N4CCCc5ccccc54)cc3)sc2c1 | inconclusive [activator, single point]
CC1(C)C[C@@H](O)[C@]2(C)CC[C@]3(C)C(=CCC4[C@@]5(C)CC[C@H](O)[C@](C)(CO)C5CC[C@]43C)[C@@H]2C1 (stereo not given in full) | inconclusive [activator, single point]
CC(C)(Oc1ccc(Cl)cc1)C(=O)NC1=NN(c2ccccc2)C(=O)C1 | inconclusive [activator, partial curve, poor fit]
CCc1ccc(-c2nc(CN3CCC(C(=O)N4CCN(c5ccccn5)CC4)CC3)c(C)o2)cc1 | inconclusive [activator, single point]

SMILES | Potency
CCOc1cc(/C=C\[N+](=O)[O-])ccc1OCC(=O)N1CCOCC1 | active: 6.51 µM
O=C(NNc1nc2ccccc2s1)c1ccccc1F | inconclusive [activator, single point]
Cc1ccccc1C(=O)Nc1ccc(-c2nc3ccc(C(=O)c4ccccc4)cc3[nH]2)cc1 | inconclusive [activator, partial curve, poor fit]
CCN(CC)CCNC(=O)Cn1nc(-c2ccc(C)cc2)ccc1=O | inconclusive [activator, single point]
COc1ccc(-c2ccccc2[C@H]2[C@@H]3C=CC[C@@H](C)[C@@H]3C(=O)N2Cc2ccccc2)cc1 | active: 23.1 µM
CN1CCN(NC(=O)CN2C(=O)S/C(=C\c3c(Cl)cccc3Cl)C2=O)CC1 | inactive
COCn1ccnc1C(O)(c1ccc(OC)cc1)c1ccc(OC)cc1 | inactive
Cc1cccc(NC(=O)c2cc(NC(=O)c3ccccc3)ccc2N2CCCCC2)c1 | inconclusive [activator, partial curve, poor fit]
C[C@@]12C(=O)N(c3ccc(F)cc3)C(=O)N1[C@@H]1c3ccccc3OC[C@@H]1[C@H]2c1ccccc1 | inconclusive [activator, partial curve, poor fit]
O=C(/C(=N/N=C/c1ccc(O)c(O)c1)c1ccccc1)c1ccccc1 | inconclusive [activator, partial curve, poor fit]
Cc1ccc(N(C(=O)c2snc(C(N)=O)c2N)C(C(=O)NC2CCCC2)c2ccco2)cc1 (stereo not given) | inconclusive [activator, single point]
O=C(CCCCn1c(=O)c2ccccc2n(Cc2ccc(Cl)cc2)c1=O)NCc1ccco1 | inconclusive [activator, partial curve, poor fit]
CCN(CC)C(=O)CSC1=N/C(=C/c2ccco2)C(=O)N1c1ccc(OC)c(Cl)c1 | inconclusive [activator, partial curve, poor fit]
Cn1c2c(c(=O)n(C)c1=O)C(C(F)(F)F)(C(F)(F)F)N=C(c1ccc(Cl)cc1)N2 | inconclusive [activator, partial curve, poor fit]
CCCCCCC(=O)N(O)C1CC(=O)N(c2ccc(F)cc2)C1=O (stereo not given) | inconclusive [activator, single point]
COc1cccc(/C=C(/C(=O)OCC(=O)NC2CCCC(C)C2C)c2ccccc2)c1 (stereo not given) | active: 18.4 µM
COc1ccc(OC)c(NC(=O)CSc2nnc(CNC(=O)c3ccco3)o2)c1 | inconclusive [activator, full curve, poor fit]
CCc1ccccc1N=C1S/C(=C/c2ccccc2OCC(=O)N2CCOCC2)C(=O)N1C | inconclusive [activator, single point]
Cc1ccc(S(=O)(=O)Nc2ccc3nc(N)sc3c2)cc1 | inactive
Cc1ccc(C(=O)NC(C)CCc2ccccc2)cc1S(=O)(=O)N1CCOCC1 (stereo not given) | inactive
O=C(c1ccco1)N1CCN(Cc2nc3ccc([N+](=O)[O-])cc3c(=O)n2-c2ccccc2F)CC1 | inactive
